Binding signal data for 110 sequences are collected here from paper PMC10668032.

The other results are listed elsewhere or left out. At the low end of the ranking, values are background and their order means little.

For the test, the target named is SIX1-Q177R homeodomain (UniProt Q15475). In words: universal protein binding microarray. The conditions noted are these: Universal all-10-mer PBM (8x60K, AMADID 030236), 300 nM GST-tagged protein, Alexa Fluor 488 anti-GST; buffer, salt, pH and temperature not stated; high values mean tight binding; most listed sequences are background and not binding sites; double strand, one strand shown.
Turning to GAGTAACC, the binding signal is 0.0801 E-score.
The same measure for ATTGTATA: 0.0276 E-score.
As for TCAGCTCA, the binding signal was -0.0887 E-score.
To CGACAAGC belongs -0.0916 E-score.
With AGACGTGA, the binding signal was -0.28 E-score.
To GTTAGATA belongs -0.0411 E-score; to CGTTCCAC, -0.0341 E-score.
The same measure for CCAATGTA: 0.0709 E-score; for CGGAATGC: -0.31 E-score.
To GAGAGCGC belongs -0.254 E-score; to GCGACGCC, 0.0511 E-score; to AATCGCAT, -0.0474 E-score.
On to ACTGTCAG, for which the binding signal came to 0.0113 E-score.
For GAACGCAA, the binding signal is -0.125 E-score.
For AACCTCCT, the binding signal worked out at 0.0252 E-score.
The same measure for AATGACGA: -0.0396 E-score; for AAGCAACC: -0.245 E-score; for GAGTGCTA: 0.152 E-score.
The same measure for TCCTTTCA: -0.165 E-score; for CCCCCAAA: 0.092 E-score; for GAGACAGC: -0.178 E-score.
To ATGAAGCA belongs 0.00639 E-score; to CCCTTAAG, 0.0842 E-score.
As to ACAACCAT, the binding signal is -0.137 E-score.
Take TCATGGAA: the binding signal is -0.225 E-score.
The same measure for TGTTTTAA: 0.0553 E-score.
The same measure for ATGCCCTA: -0.225 E-score; for AGCCCTTA: -0.214 E-score.
To GATGGTCC belongs -0.0954 E-score.
Consider AACAGAGT, for which the binding signal was determined as 0.102 E-score.
As for TAATTCTA, the binding signal came to 0.136 E-score.
To CCCATAGG belongs 0.132 E-score; to ACAACGGA, 0.0334 E-score.
The same measure for GCCACCCC: 0.132 E-score; for CCACATTC: -0.198 E-score; for AGAAGATA: -0.164 E-score.
To GGGGGACC belongs -0.0801 E-score; to GCCGTCGA, 0.00855 E-score.
With CCTAATAC, the binding signal worked out at 0.0255 E-score.
To TTCTTAAA belongs -0.26 E-score.
The same measure for AGCCAACG: -0.0941 E-score.
To AGCGGTTC belongs -0.0712 E-score; to ATCTGGCC, -0.148 E-score; to ACCACCCT, 0.183 E-score.
As to ACGGCGCC, the binding signal is -0.144 E-score.
The same measure for AATGAAAT: -0.289 E-score; for GGGTTGAC: 0.0762 E-score.
To GTCGGCAC belongs 0.0296 E-score; to ATTCAAGC, -0.107 E-score; to GAAGCGGC, -0.089 E-score.
The same measure for ATATAAGG: 0.015 E-score; for TTAGCGAA: -0.0255 E-score; for ACACCCCT: 0.475 E-score.
Consider AGCGAGTA, for which the binding signal was -0.0533 E-score.
Turning to CAGAGAGC, the binding signal was -0.237 E-score.
The same measure for AGCTCACC: -0.183 E-score.
To AAACTTCT belongs -0.188 E-score; to AGGGAAGG, -0.0257 E-score; to ACATATTC, -0.163 E-score.
Turning to GAAGAGGA, the binding signal was -0.202 E-score.
To CTCTTGCA belongs 0.0486 E-score.
To TCCTCTCA belongs -0.0506 E-score; to AGTTGGCA, 0.0485 E-score; to ATTTTCTA, -0.214 E-score.
AAGTCTCT: the binding signal was -0.402 E-score.
Consider GGTATAAA, for which the binding signal was 0.114 E-score.
With AAGGTAAT, the binding signal is -0.0931 E-score.
The same measure for CAGCCGGG: -0.0638 E-score.
To AAGCTGGC belongs -0.213 E-score; to GTCGTCAA, -0.0525 E-score.
As to AACATCTA, the binding signal is -0.0849 E-score.
To CCGGGTAA belongs 0.177 E-score.
To AGAACAAT belongs -0.079 E-score; to CAAGCTTG, -0.2 E-score.
On to ATACTAAG, for which the binding signal is 0.0604 E-score.
Consider ACCTTAAT, for which the binding signal was 0.0183 E-score.
For CACGCTGA, the binding signal amounted to 0.223 E-score.
Take AACGGATT: the binding signal is -0.185 E-score.
The same measure for ATGGTGCG: 0.0606 E-score.
The same measure for ACGGAGTA: 0.146 E-score; for CTAATCTC: -0.176 E-score; for TCGCCGAA: -0.148 E-score.
As for AGGGATGC, the binding signal is -0.043 E-score.
The same measure for AGTCTGCG: -0.108 E-score.
To CCATTGCG belongs -0.229 E-score.
To AAAGAGAC belongs -0.00626 E-score; to CCCTGGGC, -0.168 E-score; to CCAATACA, 0.096 E-score.
On to AGGTATCG, for which the binding signal is 0.33 E-score.
To CCAACATA belongs 0.0711 E-score.
As for AGGGAAGA, the binding signal is -0.128 E-score.
The same measure for GAGTAAGA: 0.0475 E-score; for GTTGCAGA: -0.118 E-score; for CGTTGTGC: 0.0178 E-score.
To GTGGGCCA belongs -0.245 E-score.
Turning to GAGCCACC, the binding signal amounted to 0.0254 E-score.
The same measure for CGGGGTAA: 0.235 E-score; for TAAGATAA: -0.0739 E-score.
To AGAGGAAT belongs -0.0415 E-score; to CGCTAATA, -0.111 E-score; to CTAAGCTC, -0.0473 E-score.
To GCGAACTA belongs -0.167 E-score; to CTGCGCGA, 0.0423 E-score; to CTTCTCGC, -0.0209 E-score.
GACTCGAA: the binding signal is -0.203 E-score.
As for AAGTAACT, the binding signal was -0.239 E-score.
With ACTCGATA, the binding signal amounted to 0.0671 E-score.
Turning to AATTGCTA, the binding signal is -0.025 E-score.
The same measure for GCCTCGGA: -0.211 E-score.
The same measure for CCTAATGC: -0.0597 E-score.
